# The list shows a part of the results.
# Assays:
# Test in all cases: glycan array binding signal (z-score within array); higher = stronger binding
# Settings in all cases: glycan notation: IUPAC condensed, linker removed
# [1] = biological target: GlcNAc(b1-2)Man(a1-3)[GlcNAc(b1-2)Man(a1-6)]Man(b1-4)GlcNAc(b1-4)GlcNAc
# Procedure, shortened: (§1)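 Glycan array data were curated from 3228 arrays in the Consortium for Functional Glycomics database and kept only where the protein sequence was available. Glycan names were converted to IUPAC-condensed notation, and columns mapping to the same glycan were averaged. The binding signal is a within-array Z-score, averaged across arrays of the same protein sequence at different concentrations or buffers and across linkers. Negative Z-scores can be read as non-binding.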
# GlcNAc(b1-3)Gal = biological target: GlcNAc(b1-3)Gal
# Procedure, shortened: as §1
# [2] = biological target: GlcNAc(b1-3)Gal(b1-3)GalNAc
# Procedure, shortened: as §1
# GlcNAc(b1-3)Gal(b1-4)Glc = biological target: GlcNAc(b1-3)Gal(b1-4)Glc
# Procedure, shortened: as §1
# [3] = biological target: GlcNAc(b1-3)Gal(b1-4)GlcNAc
# Procedure, shortened: as §1
# [4] = biological target: GlcNAc(b1-3)Gal(b1-4)GlcNAc(b1-3)Gal(b1-4)GlcNAc
# Procedure, shortened: as §1
# GlcNAc(b1-3)GalNAc = biological target: GlcNAc(b1-3)GalNAc
# Procedure, shortened: as §1
# [5] = biological target: GlcNAc(b1-3)[GlcNAc(b1-4)][GlcNAc(b1-6)]GlcNAc
# Procedure, shortened: as §1
# [6] = biological target: GlcNAc(b1-3)[GlcNAc(b1-6)]Gal(b1-4)GlcNAc
# Procedure, shortened: as §1
# [7] = biological target: GlcNAc(b1-3)[GlcNAc(b1-6)]GlcNAc
# Procedure, shortened: as §1
# [8] = biological target: GlcNAc(b1-4)Gal(b1-4)GlcNAc
# Procedure, shortened: as §1
# [9] = biological target: GlcNAc(b1-4)GlcNAc(b1-4)GlcNAc
# Procedure, shortened: as §1
# [10] = biological target: GlcNAc(b1-4)GlcNAc(b1-4)GlcNAc(b1-4)GlcNAc(b1-4)GlcNAc
# Procedure, shortened: as §1
# [11] = biological target: GlcNAc(b1-4)GlcNAc(b1-4)GlcNAc(b1-4)GlcNAc(b1-4)GlcNAc(b1-4)GlcNAc
# Procedure, shortened: as §1
# [12] = biological target: GlcNAc(b1-4)[GlcNAc(b1-6)]GalNAc
# Procedure, shortened: as §1
# [13] = biological target: GlcNAc(b1-6)Gal(b1-4)GlcNAc
# Procedure, shortened: as §1
# GlcNAc(b1-6)GalNAc = biological target: GlcNAc(b1-6)GalNAc
# Procedure, shortened: as §1
# Kdn(a2-3)Gal(b1-3)GlcNAc = biological target: Kdn(a2-3)Gal(b1-3)GlcNAc
# Procedure, shortened: as §1
# Kdn(a2-3)Gal(b1-4)GlcNAc = biological target: Kdn(a2-3)Gal(b1-4)GlcNAc
# Procedure, shortened: as §1
# [14] = biological target: Man(a1-2)Man(a1-2)Man(a1-3)Man
# Procedure, shortened: as §1
# [15] = biological target: Man(a1-2)Man(a1-2)Man(a1-3)[Man(a1-2)Man(a1-3)[Man(a1-2)Man(a1-6)]Man(a1-6)]Man(b1-4)GlcNAc(b1-4)GlcNAc
# Procedure, shortened: as §1
# [16] = biological target: Man(a1-2)Man(a1-2)Man(a1-3)[Man(a1-2)Man(a1-6)[Man(a1-3)]Man(a1-6)]Man(b1-4)GlcNAc(b1-4)GlcNAc
# Procedure, shortened: as §1
# [17] = biological target: Man(a1-2)Man(a1-2)Man(a1-6)[Man(a1-3)]Man
# Procedure, shortened: as §1
# Man(a1-2)Man(a1-3)Man = biological target: Man(a1-2)Man(a1-3)Man
# Procedure, shortened: as §1
# [18] = biological target: Man(a1-2)Man(a1-3)[Man(a1-2)Man(a1-6)]Man
# Procedure, shortened: as §1
# [19] = biological target: Man(a1-2)Man(a1-3)[Man(a1-3)[Man(a1-6)]Man(a1-6)]Man(b1-4)GlcNAc(b1-4)GlcNAc
# Procedure, shortened: as §1
# [20] = biological target: Man(a1-2)Man(a1-3)[Man(a1-6)]Man(a1-6)[Man(a1-2)Man(a1-3)]Man(b1-4)GlcNAc(b1-4)GlcNAc
# Procedure, shortened: as §1
# Man(a1-3)[Man(a1-6)]Man = biological target: Man(a1-3)[Man(a1-6)]Man
# Procedure, shortened: as §1
# [21] = biological target: Man(a1-3)[Man(a1-6)]Man(a1-6)[Man(a1-3)]Man(b1-4)GlcNAc(b1-4)GlcNAc
# Procedure, shortened: as §1
# [22] = biological target: Man(a1-3)[Man(a1-6)]Man(b1-4)GlcNAc(b1-4)GlcNAc
# Procedure, shortened: as §1
# Man(b1-4)GlcNAc = biological target: Man(b1-4)GlcNAc
# Procedure, shortened: as §1
# Neu5Ac(a2-3)Gal = biological target: Neu5Ac(a2-3)Gal
# Procedure, shortened: as §1
# [23] = biological target: Neu5Ac(a2-3)Gal(b1-3)GalNAc
# Procedure, shortened: as §1
# [24] = biological target: Neu5Ac(a2-3)Gal(b1-3)GalNAc(b1-3)Gal(a1-4)Gal(b1-4)Glc
# Procedure, shortened: as §1
# [25] = biological target: Neu5Ac(a2-3)Gal(b1-3)GalNAc(b1-4)[Neu5Ac(a2-3)]Gal(b1-4)Glc
# Procedure, shortened: as §1
# [26] = biological target: Neu5Ac(a2-3)Gal(b1-3)GalNAc6S
# Procedure, shortened: as §1
# [27] = biological target: Neu5Ac(a2-3)Gal(b1-3)GlcNAc
# Procedure, shortened: as §1
# [28] = biological target: Neu5Ac(a2-3)Gal(b1-3)GlcNAc(b1-3)Gal(b1-3)GlcNAc
# Procedure, shortened: as §1
# [29] = biological target: Neu5Ac(a2-3)Gal(b1-3)GlcNAc(b1-3)Gal(b1-4)GlcNAc
# Procedure, shortened: as §1
# [30] = biological target: Neu5Ac(a2-3)Gal(b1-3)GlcNAc6S
# Procedure, shortened: as §1
# [31] = biological target: Neu5Ac(a2-3)Gal(b1-3)[Fuc(a1-4)]GlcNAc
# Procedure, shortened: as §1
# [32] = biological target: Neu5Ac(a2-3)Gal(b1-3)[Fuc(a1-4)]GlcNAc(b1-3)Gal(b1-4)[Fuc(a1-3)]GlcNAc
# Procedure, shortened: as §1
# [33] = biological target: Neu5Ac(a2-3)Gal(b1-3)[Neu5Ac(a2-3)Gal(b1-4)]GlcNAc
# Procedure, shortened: as §1
binder,measurement,setting,value
"Annexin-A1 (Mus musculus), P10107 (protein) MAMVSEFLKQARFLENQEQEYVQAVKSYKGGPGSAVSPYPSFNVSSDVAALHKAIMVKGVDEATIIDILTKRTNAQRQQIKAAYLQENGKPLDEVLRKALTGHLEEVVLAMLKTPAQFDADELRGAMKGLGTDEDTLIEILTTRSNEQIREINRVYREELKRDLAKDITSDTSGDFRKALLALAKGDRCQDLSVNQDLADTDARALYEAGERRKGTDVNVFTTILTSRSFPHLRRVFQNYGKYSQHDMNKALDLELKGDIEKCLTTIVKCATSTPAFFAEKLYEAMKGAGTRHKALIRIMVSRSEIDMNEIKVFYQKKYGISLCQAILDETKGDYEKILVALCGGN",glycan array binding signal (z-score),[1],0.064
same,glycan array binding signal (z-score),GlcNAc(b1-3)Gal,-0.137
same,glycan array binding signal (z-score),[2],-0.049
same,glycan array binding signal (z-score),GlcNAc(b1-3)Gal(b1-4)Glc,-0.278
same,glycan array binding signal (z-score),[3],0.378
same,glycan array binding signal (z-score),[4],-0.532
same,glycan array binding signal (z-score),GlcNAc(b1-3)GalNAc,-0.231
same,glycan array binding signal (z-score),[5],-0.436
same,glycan array binding signal (z-score),[6],-0.758
same,glycan array binding signal (z-score),[7],-0.452
same,glycan array binding signal (z-score),[8],-0.318
same,glycan array binding signal (z-score),[9],-0.237
same,glycan array binding signal (z-score),[10],-0.446
same,glycan array binding signal (z-score),[11],-0.547
same,glycan array binding signal (z-score),[12],-0.564
same,glycan array binding signal (z-score),[13],0.067
same,glycan array binding signal (z-score),GlcNAc(b1-6)GalNAc,-0.628
same,glycan array binding signal (z-score),Kdn(a2-3)Gal(b1-3)GlcNAc,-0.771
same,glycan array binding signal (z-score),Kdn(a2-3)Gal(b1-4)GlcNAc,-0.687
same,glycan array binding signal (z-score),[14],0.192
same,glycan array binding signal (z-score),[15],-0.211
same,glycan array binding signal (z-score),[16],-0.282
same,glycan array binding signal (z-score),[17],-0.514
same,glycan array binding signal (z-score),Man(a1-2)Man(a1-3)Man,0.743
same,glycan array binding signal (z-score),[18],-0.136
same,glycan array binding signal (z-score),[19],0.179
same,glycan array binding signal (z-score),[20],-0.41
same,glycan array binding signal (z-score),Man(a1-3)[Man(a1-6)]Man,-0.165
same,glycan array binding signal (z-score),[21],-0.176
same,glycan array binding signal (z-score),[22],-0.566
same,glycan array binding signal (z-score),Man(b1-4)GlcNAc,-0.616
same,glycan array binding signal (z-score),Neu5Ac(a2-3)Gal,0.45
same,glycan array binding signal (z-score),[23],-0.573
same,glycan array binding signal (z-score),[24],-0.275
same,glycan array binding signal (z-score),[25],-0.443
same,glycan array binding signal (z-score),[26],0.599
same,glycan array binding signal (z-score),[27],-0.109
same,glycan array binding signal (z-score),[28],-0.048
same,glycan array binding signal (z-score),[29],-0.609
same,glycan array binding signal (z-score),[30],0.594
same,glycan array binding signal (z-score),[31],-0.681
same,glycan array binding signal (z-score),[32],0.009
same,glycan array binding signal (z-score),[33],-0.501
